Here are results for 14 molecules from the supplement of paper PMC8748497.

The other results are listed elsewhere or left out.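 Rule for the calls: active = GRHL reporter fold change of at least 2 over DMSO at 10 µM; inactive = below 2-fold.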 Repeats are few or missing, and single values can be far off.
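Note: stable HEK293 line carrying repeated GRHL consensus sites upstream of a minimal promoter driving luciferase, luminescence read 24 h post-treatment, normalized to 0.5% DMSO vehicle wells.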

In the test the test system is HEK293 GRHL-luciferase reporter. Kind of test: GRHL luciferase reporter activity, fold change over DMSO control; higher = stronger GRHL reporter activation. The note with it: 10 µM; 24 h.
Turning to `COc1ccc(CC2c3cc(OC)c(OC)cc3CC[N+]2(C)CCC(=O)OCCCCCOC(=O)CC[N+]2(C)CCc3cc(OC)c(OC)cc3C2Cc2ccc(OC)c(OC)c2)cc1OC` (centres undefined), the “GRHL luciferase reporter activity” value was active: 2.19. For `CNc1ccccc1C(=O)N1CCc2c([nH]c3ccccc23)C1=O`, the “GRHL luciferase reporter activity” value is active: 4.13.

`Cc1cc(O)c(C=O)c2c1C(=O)Oc1c(COC(=O)/C=C/C(=O)O)c(O)c(C(=O)O)c(C)c1O2`: the “GRHL luciferase reporter activity” value was inactive: 0.947. The value for `C/C(=C\C(=O)OCCCCCCCCC(=O)O)C[C@@H]1OC[C@H](C[C@@H]2O[C@H]2[C@@H](C)[C@H](C)O)[C@@H](O)[C@H]1O` was inactive: 0.934. In the case of `Cc1c(-c2cnccn2)ssc1=S` it was inactive: 1.1. As for `CC(C[N+](C)(C)C)OC(N)=O` (centres undefined), the “GRHL luciferase reporter activity” value was inactive: 1.03.

In the case of `CCCc1nc2c(C)cc(-c3nc4ccccc4n3C)cc2n1Cc1ccc(-c2ccccc2C(=O)O)cc1`, the “GRHL luciferase reporter activity” value is active: 2.1. Regarding `COc1ccc(-c2coc3cc(O)ccc3c2=O)c(O)c1O`, the “GRHL luciferase reporter activity” value was inactive: 1.58.

As to `COC(=O)/C=C/C(=O)OC`, the “GRHL luciferase reporter activity” value is active: 5.36. `COc1cc2oc3cc(OC)c(OC)c(CC=C(C)C)c3c(=O)c2c(O)c1CC=C(C)C`: the “GRHL luciferase reporter activity” value is inactive: 1.09. The value for `O=C(O)C1CSCN1` (centres undefined) was inactive: 1.06. `CO/N=C(\C(=O)N[C@@H]1C(=O)N2C(C(=O)O)=C(CSc3nc(=O)c(O)nn3C)CS[C@H]12)c1csc(N)n1`: the “GRHL luciferase reporter activity” value is inactive: 0.923. In the case of `COc1ccc(Cl)cc1C(=O)NCCc1ccc(S(=O)(=O)NC(=O)NC2CCCCC2)cc1` it was inactive: 1.24. The value for `CC(C)=CCc1c2c(c3occ(-c4ccc(O)c(O)c4)c(=O)c3c1O)C=CC(C)(C)O2` was inactive: 1.64.
